According to PubChem BioAssay AID1240 (Sanford-Burnham Center for Chemical Genomics, 2008):
Hit rate of the full screen: of about 50,000 compounds, about 800 (1.6%) showed an effect of 50% or more. This is one part of the list.

Each molecule was assayed against Bcl-2-like protein 10 (Homo sapiens) (UniProt Q9HD36) (assay: Phenotype converters, Bcl-B/TR3 peptide binding displacement, primary biochemical FP (AID 1240;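 note: 0% = Bcl-B with tracer peptide and DMSO and 100% = tracer peptide lacking Bcl-B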)). Details: GST-Bcl-B / FITC-TR3 peptide fluorescence polarization; stronger effect = higher value; compound at 3.75 mg/L.
Chain of UniProt Q9HD36 (Q9HD36 whole entry, looked up): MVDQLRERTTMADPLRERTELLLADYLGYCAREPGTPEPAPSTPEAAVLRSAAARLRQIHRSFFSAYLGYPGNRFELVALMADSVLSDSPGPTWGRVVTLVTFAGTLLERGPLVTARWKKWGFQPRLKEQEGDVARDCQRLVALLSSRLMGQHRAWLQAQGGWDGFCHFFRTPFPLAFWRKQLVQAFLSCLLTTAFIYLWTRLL

Q: COc1cccc(-c2ncnn2-c2ccc(C)c(Cl)c2)c1OC was tested. Which displacement did it give?
A: The displacement was -2.6%.

Q: COc1ccc(/C=C2/SC(=O)N(CCC(=O)Nc3ccc(S(=O)(=O)Nc4nccs4)cc3)C2=O)cc1 was tested. Which displacement did it give?
A: Its displacement is 31.8%.

Q: Cc1ccc(N=C(NOCc2cccc(Br)c2)c2nonc2N)cc1 was tested. Which displacement did it give?
A: Its displacement is -4.7%.

Q: COc1cc(/C=c2\sc3nc4ccccc4n3c2=O)ccc1OC(=O)c1ccc(Cl)cc1 was tested. Which displacement did it give?
A: Its displacement is 22%.

Q: For Cc1c(OCC(=O)OC(C)C)ccc2c3c(c(=O)oc12)CCC3, which displacement is on record?
A: Its displacement is 7.4%.

Q: With Cc1ccc(C(=O)Nc2ccccc2C(=O)NC2CCCCCC2)cc1 as the molecule, how does the displacement read?
A: Its displacement is 20.5%.

Q: For COc1ccc(C2CC(=O)C3=C(C2)Nc2ccccc2NC3c2c(F)cccc2F)cc1 (centres undefined), which displacement is on record?
A: The displacement was -7.4%.

Q: Which displacement does the source give for COC(=O)C1=C(C)NC(=O)NC1c1ccc(OCC(N)=O)cc1 (centres undefined) here?
A: Its displacement is 5.4%.

Q: How did the displacement turn out when O=C(Nc1ccc(OCc2ccccc2)cc1)C(c1ccccc1)c1ccccc1 was run?
A: The displacement was 7.3%.

Q: For Cc1ccccc1OCC(=O)NC1CC(C)(C)NC(C)(C)C1, which displacement is on record?
A: The displacement was 0.7%.

Q: How did the displacement turn out when COC(=O)c1cc(NC(=O)c2cccnc2)cc(C(=O)OC)c1 was run?
A: The displacement was -12.7%.

Q: With NC1=C(N2CCCCC2)C(=O)c2ccccc2C1=O as the molecule, how does the displacement read?
A: The displacement was 10.8%.

Q: With CCCN(CCC)c1ccc(/C=N/NC(=O)c2cccc([N+](=O)[O-])c2)cc1 as the molecule, how does the displacement read?
A: Its displacement is 5.3%.

Q: For CCCC12C(=O)C(C)(C(c3ccccc3)=C1c1ccccc1)C1C(=O)N(c3cccc(Br)c3)C(=O)C12 (centres undefined), which displacement is on record?
A: The displacement was 11.5%.

Q: Which displacement does the source give for NS(=O)(=O)c1ccc(NC(=O)/C(=C\c2cccs2)NC(=O)c2ccccc2)cc1 here?
A: Its displacement is 14.7%.

Q: Which displacement does the source give for Nn1c(Nc2ccccc2)nc2ccccc21 here?
A: The displacement was 2.7%.

Q: How did the displacement turn out when O=C(CN(c1ccc(Br)cc1)S(=O)(=O)c1ccccc1)NCC1CCCO1 (centres undefined) was run?
A: The displacement was 4.1%.

Q: How did the displacement turn out when CC1=NN(c2ccc(S(N)(=O)=O)cc2)C(=O)/C1=C\c1ccc(N(C)C)cc1 was run?
A: Its displacement is -1.9%.

Q: How did the displacement turn out when O=C(COc1ccccc1[N+](=O)[O-])Nc1ccc(Cl)cc1Cl was run?
A: The displacement was 11.1%.

Q: Which displacement does the source give for CCOC(=O)c1c(NC(=O)c2cccc(F)c2)sc(C(=O)N(CC)CC)c1C here?
A: Its displacement is 5%.

Q: Which displacement does the source give for Cc1cc(Nc2ccc(Cl)cc2)nc(-n2nc(C)cc2C)n1 here?
A: Its displacement is -8.4%.

Q: For Cc1ccc(N2C(=O)C(Cl)=C(NCc3ccccc3)C2=O)c(C)c1, which displacement is on record?
A: Its displacement is -2.5%.

Q: How did the displacement turn out when CCOc1ccc(C2=C/C(=C/c3cc(Br)c(OC)cc3OC)C(=O)O2)cc1 was run?
A: Its displacement is 40.5%.

Q: Which displacement does the source give for Cc1cc(C)c2cccc(NC(=S)NC(=O)c3ccccc3)c2n1 here?
A: The displacement was 11.1%.

Q: Which displacement does the source give for CCN(CC)CCCOc1ccccc1Br here?
A: The displacement was 10.3%.

Q: Which displacement does the source give for CC(C)=C1C2C=CC1C1C(=O)N(c3ccc(Cl)cc3[N+](=O)[O-])C(=O)C21 (centres undefined) here?
A: The displacement was -9.5%.

Q: Which displacement does the source give for COc1ccc(NC(=O)c2sc3cc(C)ccc3c2Cl)c(OC)c1 here?
A: Its displacement is -6.1%.

Q: How did the displacement turn out when Cn1c(-c2nc3ccccc3n2C)nc2ccccc21 was run?
A: The displacement was 4.2%.

Q: For C(/C=C/c1ccccc1)=NN1CCN(Cc2ccccc2)CC1, which displacement is on record?
A: The displacement was -1.3%.

Q: How did the displacement turn out when COc1ccc(N(CC(=O)Nc2ccccc2Cl)S(=O)(=O)c2ccccc2)cc1Cl was run?
A: Its displacement is 12.1%.

Q: With CC(C)N(C(=O)c1ccc(C(=O)Nc2ccc(Nc3ccccc3)cc2)cc1)C(C)C as the molecule, how does the displacement read?
A: The displacement was 13.2%.

Q: For Cc1c(Cl)c([N+](=O)[O-])nn1CC(=O)NCCCn1ccnc1, which displacement is on record?
A: The displacement was -2.1%.

Q: Which displacement does the source give for Cc1ccc(-c2nnc(NC(=O)c3ccco3)s2)cc1 here?
A: Its displacement is 0.6%.

Q: Which displacement does the source give for COCCOC(=O)C1=C(C)NC(=O)CC1c1c(F)cccc1Cl (centres undefined) here?
A: Its displacement is 13.1%.

Q: How did the displacement turn out when COc1cc(/C=C2/C(=O)NC(=O)N(c3cccc(C)c3)C2=O)ccc1OCCOc1ccccc1 was run?
A: The displacement was 19%.

Q: Which displacement does the source give for CCC1CCc2c(sc(N)c2C(=O)OC(C)C)C1 (centres undefined) here?
A: The displacement was -3.2%.

Q: How did the displacement turn out when CCN1C(=O)/C(=C\c2ccc(-c3ccc(I)cc3)o2)SC1=S was run?
A: Its displacement is 15.4%.

Q: How did the displacement turn out when CCc1ccc(OCC(=O)N2CCN(c3ccc([N+](=O)[O-])cc3)CC2)cc1 was run?
A: Its displacement is 15%.

Q: COc1ccc(NC(=O)CSC(N)=O)c(OC)c1 was tested. Which displacement did it give?
A: The displacement was 9%.

Q: O=C(COc1ccccc1)Nc1ccc(N2CCOCC2)cc1 was tested. Which displacement did it give?
A: The displacement was 12%.

Q: COc1ccc(/C=C/C(=O)N2CCCCCC2)cc1Br was tested. Which displacement did it give?
A: Its displacement is 9.9%.

Q: How did the displacement turn out when c1ccc(Oc2nc(-c3cccnc3)nc3ccccc23)cc1 was run?
A: The displacement was 13.4%.

Q: How did the displacement turn out when O=C(C(Sc1ccccc1)c1ccccc1)N1CCOCC1 (centres undefined) was run?
A: Its displacement is 5.7%.

Q: COc1ccc(C(=O)N2c3ccc(F)cc3CCC2C)cc1OC (centres undefined) was tested. Which displacement did it give?
A: Its displacement is -9.7%.

Q: Which displacement does the source give for COc1cc(C(=O)NC(NC(=S)Nc2ccccc2Br)C(Cl)(Cl)Cl)cc(OC)c1OC (centres undefined) here?
A: Its displacement is -5.1%.

Q: Cc1ccc(/C(O)=C2\C(=O)C(=O)N(CCCC(=O)O)C2c2ccc(N(C)C)cc2)cc1 (centres undefined) was tested. Which displacement did it give?
A: Its displacement is -4.1%.

Q: Which displacement does the source give for CC(C)(C)c1ccc(C(=O)N2N=C(c3cccnc3)CC2(O)C(F)(F)F)cc1 (centres undefined) here?
A: Its displacement is -20.3%.

Q: CCCCOc1ccc(/C=C2/C(=O)NN(c3ccc(C(=O)OCC)cc3)C2=O)cc1OC was tested. Which displacement did it give?
A: Its displacement is -9.4%.

Q: For O=C1/C(=C/c2cccc([N+](=O)[O-])c2)SC(=S)N1c1ccc(O)cc1, which displacement is on record?
A: The displacement was 19.7%.

Q: Which displacement does the source give for CCCNC(=O)/C=C/c1ccc2c(c1)OCO2 here?
A: Its displacement is 5.4%.

Q: With Cc1cc(Cl)ccc1NC(=O)Cc1ccccc1 as the molecule, how does the displacement read?
A: Its displacement is -10%.

Q: O=C(Nc1ccc2c(c1)OCCO2)c1ccc(Cl)c([N+](=O)[O-])c1 was tested. Which displacement did it give?
A: The displacement was 12.4%.

Q: Which displacement does the source give for CC(=O)N1c2ccccc2NC2=C(C(=O)CC(C)(C)C2)C1c1cccc([N+](=O)[O-])c1 (centres undefined) here?
A: Its displacement is -0.9%.

Q: For NC(=S)NC12CC3CC(CC(C3)C1)C2, which displacement is on record?
A: Its displacement is 2.2%.

Q: With COC(=O)C1=C(C)NC2=C(C(=O)c3ccccc32)C1c1ccc(Br)o1 (centres undefined) as the molecule, how does the displacement read?
A: Its displacement is -1%.

Q: For CCCc1nc2c(C)ccc(C)c2c(N)c1CC, which displacement is on record?
A: The displacement was -17.2%.

Q: With CCOC(=O)C1=NNC2C(=O)N(c3cccc(Br)c3)C(=O)C12 (centres undefined) as the molecule, how does the displacement read?
A: Its displacement is 6.3%.

Q: O=C(Nc1ccc(Cl)c(Cl)c1)Nc1nnc(COc2ccccc2Cl)s1 was tested. Which displacement did it give?
A: The displacement was 2.3%.

Q: For CC(C)c1ccc(C2NN=C(c3ccccc3)S2)cc1 (centres undefined), which displacement is on record?
A: The displacement was -1.4%.

Q: Which displacement does the source give for Cc1ccc(S(=O)(=O)NC(=O)N2CCN(c3cccc(Cl)c3)CC2)cc1 here?
A: Its displacement is 8.7%.

Q: Which displacement does the source give for O=C(COc1ccccc1Cl)NNC(=O)c1ccccc1I here?
A: The displacement was -2.2%.

Q: How did the displacement turn out when O=C1NC(=S)S/C1=C\c1cccc(OS(=O)(=O)c2cccc([N+](=O)[O-])c2)c1 was run?
A: Its displacement is -19.5%.

Q: CCOc1ccc(/C=N/N=C2\C(=O)Nc3ccccc32)cc1 was tested. Which displacement did it give?
A: The displacement was 14.5%.

Q: For CC(=O)c1cccc(NC(=O)c2ccc([N+](=O)[O-])c(C)c2)c1, which displacement is on record?
A: The displacement was -0.1%.

Q: How did the displacement turn out when O=C(Nc1ccc(S(=O)(=O)N2CCCCC2)cc1)c1ccccc1Cl was run?
A: The displacement was 11.6%.

Q: Which displacement does the source give for CCn1c2c(c3cc(Cl)ccc31)CCC/C2=N\O here?
A: The displacement was -7.9%.

Q: O=C(O)CCCCCN1C(=O)C(=O)/C(=C(\O)c2ccc(Br)cc2)C1c1ccccc1F (centres undefined) was tested. Which displacement did it give?
A: Its displacement is -20%.

Q: How did the displacement turn out when COc1ccc(OC)c(NC(=O)c2cccc3c(Br)cccc23)c1 was run?
A: The displacement was 5.2%.

Q: For NC(=O)c1c(NC(=O)C(c2ccccc2)c2ccccc2)sc2c1CCCCCC2, which displacement is on record?
A: Its displacement is -9.7%.
